Source: the supplement of paper PMC4967469
IC50 is the fitted dose that halves viability relative to control wells, and lower means more sensitive; fits outside the tested doses are given as limits. The AUC spans the tested range (256-fold, ending at the top dose) of the same fit: 1 means no effect, lower means more sensitive. For some of these results: Where the top dose is marked as inferred, it was derived from the fitted curves, not read from the paper. For some of these results: Where an entry number is given, a second screen of the drug exists; the two often differ.

Experiments:
Assay in all cases: Viability of human cancer cell lines after 72 h of drug (GDSC screen)
[1] = compound: Cc1cn(-c2cc(NC(=O)c3ccc(C)c(Nc4nccc(-c5cccnc5)n4)c3)cc(C(F)(F)F)c2)cn1 [Nilotinib]; conditions: top dose 2 µM
Method: (§1)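 Human cancer cell lines in 384-well plates, medium with 10% serum, drug for 72 h over a 256-fold dose range (nine 2-fold or five 4-fold steps up to the top dose). Adherent lines were fixed and stained with the nucleic acid dye Syto60, suspension lines read with resazurin; signal relative to control wells, capped at 0 and 100%. One two-parameter sigmoid per drug and line, fitted in a mixed model over all curves with the slope shared within a line.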

[2] = compound: CC(C)c1ccccc1Cc1cc(C(=O)Nc2ccc(S(=O)(=O)c3ccccc3C(C)(C)C)cc2)c(O)c(O)c1O [TW-37]; conditions: top dose 5 µM
Method: as §1

[3] = compound: NC(=O)c1cccc(-c2cc(Nc3ccc(OC(F)(F)F)cc3)ncn2)c1 [GNF-2]; conditions: top dose 1.28 µM; top dose inferred
Method: as §1

[4] = compound: Nc1ccn([C@@H]2O[C@H](CO)[C@@H](O)C2(F)F)c(=O)n1 [Gemcitabine]; conditions: top dose 1.024 µM
Method: as §1

[5] = compound: CC(O)(CS(=O)(=O)c1ccc(F)cc1)C(=O)Nc1ccc(C#N)c(C(F)(F)F)c1 [Bicalutamide]; conditions: top dose inferred
Method: as §1

[6] = compound: C/C(O)=C(\C#N)C(=O)Nc1cc(Br)ccc1Br [LFM-A13]; conditions: top dose 16 µM; top dose inferred
Method: as §1

[7] = compound: CCNC(=O)c1noc(-c2cc(C(C)C)c(O)cc2O)c1-c1ccc(CN2CCOCC2)cc1 [AUY922]; conditions: top dose 0.256 µM; top dose inferred
Method: as §1

[8] = compound: Cc1ccc(Nc2cc(-c3cccc(N4C(=O)c5ccccc5C4=O)c3)ncn2)cc1NS(C)(=O)=O [KIN001-270]; conditions: top dose 20 µM; top dose inferred
Method: as §1

[9] = compound: S=C(NCc1ccc2c(c1)OCO2)N1CCN(c2ncnc3c2oc2ccccc23)CC1 [MP470]; conditions: top dose 20 µM; top dose inferred
Method: as §1

[10] = compound: O=S(=O)(c1ccccc1)N(CC(F)(F)F)c1ccc(C(O)(C(F)(F)F)C(F)(F)F)cc1 [T0901317]; conditions: top dose 10.24 µM; top dose inferred
Method: as §1

[11] = top dose 1.024 µM, screen: GDSC drug entry 150
[12] = top dose 10 µM, screen: GDSC drug entry 1502

Cell Line	AUC [1]	IC50 [1]	AUC [2]	IC50 [2]	AUC [3]	IC50 [3]	AUC [4]	IC50 [4]	AUC [5, 11]	IC50 [5, 11]	AUC [5, 12]	IC50 [5, 12]	AUC [6]	IC50 [6]	AUC [7]	IC50 [7]	AUC [8]	IC50 [8]	AUC [9]	IC50 [9]	AUC [10]	IC50 [10]
EHEB (lymphoid neoplasm, suspension)	0.933	> 2000 nM	0.663	1100 nM	0.979	> 1280 nM	0.617	155 nM	0.976	> 1020 nM	0.972	> 10000 nM	0.958	> 16000 nM	0.5	16.1 nM						
NB17 (neuroblastoma, adherent)	0.952	> 2000 nM	0.649	866 nM	0.983	> 1280 nM											0.944	> 20000 nM	0.698	4930 nM		
SK-PN-DW (Ewing sarcoma, adherent)	0.839	1440 nM			0.984	> 1280 nM	0.06	< 4 nM	0.98	> 1020 nM	0.964	> 10000 nM	0.944	> 16000 nM	0.532	19.6 nM	0.945	> 20000 nM	0.852	16400 nM	0.939	> 10200 nM
RPMI-8226 (myeloma, suspension)	0.911	> 2000 nM	0.421	196 nM	0.986	> 1280 nM			0.98	> 1020 nM	0.986	> 10000 nM	0.988	> 16000 nM	0.654	40.1 nM	0.98	> 20000 nM	0.945	> 20000 nM	0.951	> 10200 nM
OCI-M1 (acute myeloid leukaemia, suspension)	0.995	> 2000 nM	0.78	1570 nM	0.995	> 1280 nM	0.358	28.7 nM	0.993	> 1020 nM	0.993	> 10000 nM	0.995	> 16000 nM	0.662	40 nM	0.922	18200 nM	0.898	14500 nM		
ES1 (Ewing sarcoma, adherent)	0.976	> 2000 nM	0.416	185 nM	0.983	> 1280 nM	0.031	< 4 nM	0.986	> 1020 nM	0.968	> 10000 nM	0.976	> 16000 nM	0.436	10.7 nM	0.913	> 20000 nM	0.91	> 20000 nM		
D-336MG (glioma, adherent)	0.98	> 2000 nM	0.663	1010 nM	0.906	> 1280 nM					0.975	> 10000 nM					0.962	> 20000 nM	0.954	> 20000 nM	0.947	> 10200 nM
DB (B-cell lymphoma, suspension)	0.906	> 2000 nM			0.98	> 1280 nM	0.388	30.3 nM	0.982	> 1020 nM	0.908	> 10000 nM	0.968	> 16000 nM	0.764	104 nM	0.946	> 20000 nM	0.93	> 20000 nM	0.947	> 10200 nM
GAK (melanoma, adherent)	0.989	> 2000 nM	0.771	1830 nM	0.989	> 1280 nM	0.707	237 nM	0.989	> 1020 nM	0.965	> 10000 nM			0.671	46.5 nM	0.985	> 20000 nM	0.85	14100 nM	0.971	> 10200 nM
RL95-2 (endometrium, adherent)	0.987	> 2000 nM			0.908	> 1280 nM					0.972	> 10000 nM					0.942	> 20000 nM	0.93	> 20000 nM	0.984	> 10200 nM
VCaP (prostate, adherent)	0.987	> 2000 nM	0.708	1240 nM	0.987	> 1280 nM							0.981	> 16000 nM	0.753	88.3 nM	0.987	> 20000 nM	0.926	> 20000 nM	0.987	> 10200 nM
SJSA-1 (bone, adherent)	0.983	> 2000 nM	0.52	357 nM	0.984	> 1280 nM			0.984	> 1020 nM	0.977	> 10000 nM	0.961	> 16000 nM	0.497	15.7 nM	0.955	> 20000 nM	0.969	> 20000 nM	0.982	> 10200 nM
P30-OHK (lymphoblastic leukaemia, suspension)	0.978	> 2000 nM	0.517	345 nM	0.991	> 1280 nM	0.167	7.97 nM	0.991	> 1020 nM	0.988	> 10000 nM	0.964	> 16000 nM	0.621	32.4 nM	0.916	> 20000 nM	0.804	8060 nM		
D-247MG (glioma, adherent)	0.979	> 2000 nM	0.632	829 nM	0.98	> 1280 nM					0.977	> 10000 nM					0.975	> 20000 nM	0.314	308 nM	0.944	> 10200 nM
GA-10 (Burkitt lymphoma, suspension)	0.965	> 2000 nM	0.448	231 nM	0.986	> 1280 nM					0.99	> 10000 nM										
